Measurements reported in PMC7483518, “Destabilizing single chain major histocompatibility complex class I protein for repurposed enterokinase proteolysis” (Scientific Reports, 2020).
“And” between values parts separate entries of the source, which are not always exact repeats. Equal values may be shown once.

These sequences were tested on HLA-A*11:01 single chain protein.
Assay type: biochemical, Human

Sequence	Adj. Volume (Int), 50 kDa band
FGSLLDYVREHK [CS1048]	8156162 Int and 7302670 Int
GSLLDYVREHK [CS1037]	12475082 Int and 11233532 Int
MQLMPFGCLLDY [TM1050]	7701454 Int and 8605228 Int
QLMPFGSLLDY [CS1032]	28066532 Int and 32367720 Int
SLLDYVREH [CS1017]	25592050 Int and 26523910 Int
SLLDYVREHK [CS1027]	26937450 Int and 31466240 Int
SLLDYVREHKDN [CS1050]	8030240 Int and 7117786 Int
VAIKTSPKANK [EX1018, EGFR exon 19 deletion-derived peptide]	8172344 Int and 10263666 Int
